These results are taken from PMC5892938.

This is one part of the list. Construct or isoform of the protein are uncertain.

The target of the assay is GST-SBP-ILF3 (Homo sapiens) (UniProt Q12906). Briefly: targeted RNA Bind-n-Seq. As to conditions: RBNS binding buffer: 25 mM Tris pH 7.5, 150 mM KCl, 3 mM MgCl2, 0.1% Tween, 0.5 mg/mL BSA, 1 mM DTT; 27 nM protein, 750 pM RNA pool; temperature not stated; high values mean tight binding; sequences stand for … in GGGUAAAAGCGAGGUGAA…CGGGACAAGUAUUAUGGG
“GGUGGUGGUGUUGGCCCCUAACACCAUCGC [gtspaired]”: the binding signal (log2 fold change) is -0.0538. As to “GGUUGUGGUGUUGGAACCUAACACCGCGAC [gtspaired]”, the binding signal (log2 fold change) is -0.646.

For the sequence “GGUGUUGGUGUUGGACUCUAACACCAGCGC [gtspaired]”, the binding signal (log2 fold change) was -0.406. For the sequence “UUUUUUUUUUGAGAUGGACUCCAUCUUCUA [tttttgagapaired]”, the binding signal (log2 fold change) came to 0.0128. Turning to “UUUUUUUUUUGAGAGGGAGCCCUUCUCCAG [tttttgagapaired]”, the binding signal (log2 fold change) turned out to be 0.407. In the case of “UUUUUUUUUUGAGACGGAGUCCGUCUUCUG [tttttgagapaired]”, the binding signal (log2 fold change) stood at 0.684. The value for “UUUUUUUUUUGAGAGGGUGGCCCUUUCCAG [tttttgagapaired]” was 0.673.

In the case of “UUUUUUUUUUGAGACGGUCUCUGUCUCCUG [tttttgagapaired]”, the binding signal (log2 fold change) was found to be 1. As for “GGUUGUGGUGUUGGCGCCUAACACCACGAC [gtspaired]”, the binding signal (log2 fold change) is -0.376. The value for “UUUUUUUUUUGAGACGGAUACCGUCUUCUG [tttttgagapaired]” was 0.69; that for “GUGUGUGGUGUUGGCUUCUAACACCGCGCA [gtspaired]” was -0.601. As for “UUUUUUUUUUGAGACUGUGACAGUUUCCAG [tttttgagapaired]”, the binding signal (log2 fold change) was 0.463. The figure for “UUUUUUUUUUGAGACGGUCUCCGUCUCCAG [tttttgagapaired]” is 0.525; for “UUUUUUUUUUGAGAGCGACGCGUUCUCCAG [tttttgagapaired]” it is 0.777; for “UUUUUUUUUUGAGACGGAAACCGUCUUCUA [tttttgagapaired]” it is 0.155. For “UUUUUUUUUUGAGACGGCAACCGUUUCCUA [tttttgagapaired]”, the binding signal (log2 fold change) was 0.51. In the case of “UUUUUUUUUUGAGAGGGGAUCCCUUUCCGG [tttttgagapaired]”, the binding signal (log2 fold change) amounted to 0.252. As for “UUUUUUUUUUGAGAUGGUAACCAUUUCCGG [tttttgagapaired]”, the binding signal (log2 fold change) turned out to be 0.356. The figure for “UUUUUUUUUUGAGACCGGUUCGGUCUCCUA [tttttgagapaired]” is 0.518. On to “GUGGUGUGUGUUGGAACCUAACACACAUCG [gtspaired]”, for which the binding signal (log2 fold change) was -0.496. The value for “UUUUUUUUUUGAGAUGGCUUCCAUCUCCAG [tttttgagapaired]” was 0.32; that for “UUUUUUUUUUGAGACGGGAUCUGUUUCCAG [tttttgagapaired]” was 0.624; that for “GUGUGUGGUGUUGGAGCCUAACACCACAUA [gtspaired]” was -0.671. The figure for “GUUGUGUGUGUUGGCACCUAACACACACAG [gtspaired]” is -0.841; for “UUUUUUUUUUGAGACUGAGUCAGUCUCCAG [tttttgagapaired]” it is 0.306. “GUGUGGUGUGUUGGUUCCUAACACAUCGCA [gtspaired]”: the binding signal (log2 fold change) is -0.699. Consider “GUGGUUGGUGUUGGUCCCUAACACCAACUA [gtspaired]”, for which the binding signal (log2 fold change) is -0.347. As for “GGUGUGUGUGUUGGCAUCUAACACAUACAC [gtspaired]”, the binding signal (log2 fold change) was -0.432. The figure for “UUUUUUUUUUGAGAGCGACACGCUCUCCGG [tttttgagapaired]” is 0.277; for “UUCUUCCUUCCUCCGCCGGAGGAGGGGAGA [ctspaired]” it is -0.204; for “UUUUUUUUUUGAGACCGAGGCGGUUUCCGG [tttttgagapaired]” it is 0.749. The value for “GGUUGGUGUGUUGGCAUCUAACACACUAAC [gtspaired]” was -0.694. The value for “UUUUUUUUUUGAGAGCGAAACGCUCUUCUA [tttttgagapaired]” was -0.361; that for “GUUGUGUGUGUUGGCGUCUAACACACGCAA [gtspaired]” was -0.607; that for “UUUUUUUUUUGAGAGCGGAGCGCUCUCCUA [tttttgagapaired]” was 0.0973.

For “GGUGGUGGUGUUGGCCCCUAACACCGCUAC [gtspaired]”, the binding signal (log2 fold change) is -0.501. The value for “UUUUUUUUUUGAGACCGGGCCGGUCUUCUA [tttttgagapaired]” was 0.592; that for “UUUUUUUUUUGAGACGGACUCCGUCUCCUG [tttttgagapaired]” was 0.571. The figure for “UUUUUUUUUUGAGAGUGAAACACUCUCCUG [tttttgagapaired]” is 0.268. Consider “UUUUUUUUUUGAGAGCGGGACGCUCUCCAG [tttttgagapaired]”, for which the binding signal (log2 fold change) came out at 0.485.

In the case of “UUUUUUUUUUGAGACUGGGGCAGUCUCCGG [tttttgagapaired]”, the binding signal (log2 fold change) is 0.642. The figure for “UUUUUUUUUUGAGAACGAAGCGUUCUUCUA [tttttgagapaired]” is -0.0147; for “GUGGUGUGUGUUGGAGUCUAACACACAUCG [gtspaired]” it is -0.536; for “UUUUUUUUUUGAGACCGAUUCGGUUUCCAG [tttttgagapaired]” it is 0.104. The figure for “UUUUUUUUUUGAGAGUGCGACAUUCUCCUA [tttttgagapaired]” is 0.166.

As for “GGUUGGUGUGUUGGCACCUAACACACCGAC [gtspaired]”, the binding signal (log2 fold change) is -0.959.

As for “UUUUUUUUUUGAGAGGGAUACCCUCUCCAG [tttttgagapaired]”, the binding signal (log2 fold change) is 0.0898. The figure for “UUUUUUUUUUGAGACGGGAUCUGUCUUCUA [tttttgagapaired]” is 0.327; for “GUGUGGUGUGUUGGCACCUAACACAUCGCA [gtspaired]” it is -0.599. The value for “GUGUGUGGUGUUGGCUUCUAACACCAUACG [gtspaired]” was -0.69; that for “UUUUUUUUUUGAGACUGAUGCAGUCUCCUG [tttttgagapaired]” was 0.531; that for “GUGUGUGGUGUUGGCCCCUAACACCACGCA [gtspaired]” was -0.232. “GUGGUUGGUGUUGGAACCUAACACCAGCCG [gtspaired]”: the binding signal (log2 fold change) was -0.524.

Regarding “UUUUUUUUUUGAGAGGGCGCCCCUCUCCUG [tttttgagapaired]”, the binding signal (log2 fold change) was 0.802. With “UUUUUUUUUUGAGAUGGAGGCCAUCUCCUG [tttttgagapaired]”, the binding signal (log2 fold change) came to 0.375. Regarding “UUUUUUUUUUGAGACGGCGACCGUCUUCUA [tttttgagapaired]”, the binding signal (log2 fold change) worked out at 0.687. The figure for “UUUUUUUUUUGAGAUCGAUCCGAUCUCCGG [tttttgagapaired]” is 0.156; for “UUUUUUUUUUGAGAUCGAGUCGAUCUCCAG [tttttgagapaired]” it is 0.318. The figure for “UUUUUUUUUUGAGAUGGUAGCCAUCUCCUA [tttttgagapaired]” is 0.325; for “GUUGUGUGUGUUGGAGCCUAACACACACAG [gtspaired]” it is -0.217. The figure for “GUUGUGUGUGUUGGCUUCUAACACACACGA [gtspaired]” is -1.1; for “GGUGUGUGUGUUGGUUCCUAACACAUAUAC [gtspaired]” it is -0.59.

As to “UUUUUUUUUUGAGAUCGUACCGAUCUCCAG [tttttgagapaired]”, the binding signal (log2 fold change) is 0.297. As to “UUUUUUUUUUGAGACGGAGUCCGUCUCCUG [tttttgagapaired]”, the binding signal (log2 fold change) was 0.421.

For the sequence “UUUUUUUUUUGAGAUCGGAGCGAUCUCCUA [tttttgagapaired]”, the binding signal (log2 fold change) is 0.175. With “GUGUGUUGUGUUGGCACCUAACACAGCGCG [gtspaired]”, the binding signal (log2 fold change) is -0.68.

“GUGUGUGGUGUUGGUUCCUAACACCGCACG [gtspaired]”: the binding signal (log2 fold change) is -0.646. The figure for “UUUUUUUUUUGAGACUGUGGCAGUCUUCUA [tttttgagapaired]” is 0.577. The value for “UUUUUUUUUUGAGACUGGUCCAGUCUCCUA [tttttgagapaired]” was 0.625; that for “UUUUUUUUUUGAGACGGGGUCCGUUUCCGG [tttttgagapaired]” was 0.875; that for “GGUGGUUGUGUUGGCCUCUAACACAAUCGC [gtspaired]” was -0.534. With “UUUUUUUUUUGAGAGCGUUGCGCUCUCCAG [tttttgagapaired]”, the binding signal (log2 fold change) came to 0.312. The value for “UUUUUUUUUUGAGACGGCUUCCGUCUUCUG [tttttgagapaired]” was 0.726; that for “GUGUGUGGUGUUGGCGUCUAACACCAUAUA [gtspaired]” was -0.803. With “UUUUUUUUUUGAGACUGCAUCAGUCUCCUG [tttttgagapaired]”, the binding signal (log2 fold change) came out at 0.462.

For the sequence “UUUUUUUUUUGAGACUGUAUCAGUUUCCAG [tttttgagapaired]”, the binding signal (log2 fold change) is 0.302. The figure for “GUUGGUGGUGUUGGCCCCUAACACCAUCAA [gtspaired]” is -0.0295; for “UUUUUUUUUUGAGACGGUGACCGUUUCCAG [tttttgagapaired]” it is 0.801. The value for “UUUUUUUUUUGAGAUCGGAUCGAUCUCCUG [tttttgagapaired]” was -0.0133; that for “GUGUGUGGUGUUGGACCCUAACACCGCGCG [gtspaired]” was -0.572; that for “UUUUUUUUUUGAGACUGUGGCAGUUUCCAG [tttttgagapaired]” was 0.826.

Regarding “GUGUGUUGUGUUGGACUCUAACACAGCACG [gtspaired]”, the binding signal (log2 fold change) is -0.481. On to “UUUUUUUUUUGAGACGGGAUCCGUUUCCUA [tttttgagapaired]”, for which the binding signal (log2 fold change) worked out at 0.39.

On to “UUUUUUUUUUGAGAUGGUCUCUAUCUCCAG [tttttgagapaired]”, for which the binding signal (log2 fold change) worked out at 0.333. For the sequence “GUGUUGUGUGUUGGACCCUAACACACAACG [gtspaired]”, the binding signal (log2 fold change) is -0.343. The value for “UUUUUUUUUUGAGACGGUGGCCGUCUUCUA [tttttgagapaired]” was 0.818; that for “UUUUUUUUUUGAGAGCGGUACGUUCUCCGG [tttttgagapaired]” was 0.224. The figure for “GUGGUUGGUGUUGGUCCCUAACACCAGCCG [gtspaired]” is -0.505. The figure for “UUUUUUUUUUGAGACGGCGUCCGUCUCCUG [tttttgagapaired]” is 0.94; for “UUUUUUUUUUGAGAGGGUAACCCUCUCCAG [tttttgagapaired]” it is 0.297; for “UUUUUUUUUUGAGAUGGGGCCCAUCUCCGG [tttttgagapaired]” it is 0.632. As for “UUUUUUUUUUGAGACGGGCGCCGUCUCCUA [tttttgagapaired]”, the binding signal (log2 fold change) was 0.563. The figure for “GUGUGGUGUGUUGGAACCUAACACAUCACG [gtspaired]” is -0.693; for “GUGUGUGGUGUUGGUGCCUAACACCGCGCG [gtspaired]” it is -0.552; for “UUCUCUUCUCCUCCGCCGGAGGGGAAGGGA [ctspaired]” it is -0.372. Turning to “UUUUUUUUUUGAGAGCGAGUCGCUCUCCGG [tttttgagapaired]”, the binding signal (log2 fold change) was 0.164. The figure for “UUUUUUUUUUGAGAUCGAAUCGAUCUUCUA [tttttgagapaired]” is -0.268. The value for “UUUUUUUUUUGAGAGGGCUCCCCUCUCCUG [tttttgagapaired]” was 0.701. With “GGUGGUGGUGUUGGUCUCUAACACCGCCGC [gtspaired]”, the binding signal (log2 fold change) was 0.0122. Consider “GGUUGGUGUGUUGGAUCCUAACACAUCGAC [gtspaired]”, for which the binding signal (log2 fold change) is -0.779. In the case of “UUUUUUUUUUGAGACCGACACGGUUUCCUA [tttttgagapaired]”, the binding signal (log2 fold change) is 0.485.

As to “UUUUUUUUUUGAGAGCGUAACGUUCUCCGG [tttttgagapaired]”, the binding signal (log2 fold change) came to 0.163. The figure for “UUUUUUUUUUGAGAACGACACGUUCUCCUA [tttttgagapaired]” is -0.0447.
